The list shows a part of the results. Many values rest on one well or one pass, so single values are uncertain.
Legend:
Experiment in all cases: cell count relative to DMSO control; melanoma cells; higher = more viable cells
Settings in all cases: library dose: standard library concentration; 72 h
[1] = test system: G361
[2] = test system: IPC-298
[3] = test system: IST-MEL1
[4] = test system: LB2518-MEL
[5] = test system: LOXIMVI
[6] = test system: MEL-HO
[7] = test system: MZ2-MEL
[8] = test system: MeWo
[9] = test system: RPMI7951
[10] = test system: RVH-421
[11] = test system: SkMel28
[12] = test system: SkMel2
[13] = test system: SkMel30
[14] = test system: SkMel5
[15] = test system: UACC257
[16] = test system: UACC62
[17] = test system: WM115
[18] = test system: WM1716
[19] = test system: WM1745
[20] = test system: WM3526
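Further: cells treated in 1,536-well plates, then fixed and DAPI-stained, with nuclei counted from automated high-throughput microscope images.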

Row | Compound | cell count [1] [%] | cell count [2] [%] | cell count [3] [%] | cell count [4] [%] | cell count [5] [%] | cell count [6] [%] | cell count [7] [%] | cell count [8] [%] | cell count [9] [%] | cell count [10] [%] | cell count [11] [%] | cell count [12] [%] | cell count [13] [%] | cell count [14] [%] | cell count [15] [%] | cell count [16] [%] | cell count [17] [%] | cell count [18] [%] | cell count [19] [%] | cell count [20] [%]
1 | Cn1c(Nc2ccc(C(F)(F)F)cc2)nc2cc(Oc3ccnc(-c4ncc(C(F)(F)F)[nH]4)c3)ccc21 + CCN(CC)CCCCNc1ncc2cc(-c3cc(OC)cc(OC)c3)c(NC(=O)NC(C)(C)C)nc2n1 [PD173074] (first compound 0.4 µM, partner dose 0.5 µM) | 30.3 | 60.9 | 86.3 | 35.4 | 64.6 | 66 | 65.4 | 57.7 | 43.5 | 55.9 | 36 | 55.8 | 79.7 | 47.5 | 84.9 | 59.2 | 31.7 | 63.8 | 54.6 | 46.8
2 | Cn1c(Nc2ccc(C(F)(F)F)cc2)nc2cc(Oc3ccnc(-c4ncc(C(F)(F)F)[nH]4)c3)ccc21 + O=c1cc(-c2cccc3c2Sc2ccccc2S3)oc(N2CCOCC2)c1 [KU55933] (first compound 0.4 µM, partner dose 5 µM) | 30 | 44.3 | 88.1 | 27.2 | 77.4 | 63.6 | 57.7 | 68.5 | 47.6 | 42.6 | 32.6 | 51 | 77.1 | 32.3 | 81.4 | 38.8 | 24.9 | 57.1 | 54.8 | 37.7
3 | Cn1c(Nc2ccc(C(F)(F)F)cc2)nc2cc(Oc3ccnc(-c4ncc(C(F)(F)F)[nH]4)c3)ccc21 + Nc1cccc2c1CN(C1CCC(=O)NC1=O)C2=O [lenalidomide] (first compound 0.4 µM, partner dose 5 µM) | 35.6 | 53.8 | 89.7 | 37.4 | 96.6 | 73.4 | 78.6 | 78.7 | 70.3 | 47.9 | 40.3 | 51.8 | 77.6 | 41.7 | 85.4 | 49.9 | 43.6 | 71.5 | 52.5 | 58.6
4 | Cn1c(Nc2ccc(C(F)(F)F)cc2)nc2cc(Oc3ccnc(-c4ncc(C(F)(F)F)[nH]4)c3)ccc21 + c1cc(-c2cnn3cc(-c4ccc(OCCN5CCCCC5)cc4)cnc23)ccn1 [Dorsomorphin] (first compound 0.4 µM, partner dose 2 µM) | 41 | 48.5 | 74.5 | 33.7 | 96.1 | 59.8 | 48.4 | 57.1 | 40.9 | 94.9 | 33 | 70 | 67.3 | 40.4 | 74.6 | 50.3 | 47.7 | 62.4 | 47.9 | 47.4
5 | Cn1c(Nc2ccc(C(F)(F)F)cc2)nc2cc(Oc3ccnc(-c4ncc(C(F)(F)F)[nH]4)c3)ccc21 + COc1ccc2c(c1)CCC1C2CCC2(C)C(NCCCCCCN3C(=O)C=CC3=O)CCC12 [U73122] (first compound 0.4 µM, partner dose 2 µM) | 22.8 | 51.7 | 81.3 | 27.6 | 56 | 61.7 | 71.7 | 30.5 | 21.4 | 39.3 | 25.2 | 64.9 | 50 | 36.4 | 54.8 | 34.6 | 29.2 | 54.5 | 51.4 | 28.8
6 | Cn1c(Nc2ccc(C(F)(F)F)cc2)nc2cc(Oc3ccnc(-c4ncc(C(F)(F)F)[nH]4)c3)ccc21 + O=C(O)C(=O)Nc1sc2c(c1C(=O)O)CCNC2 [TCS401] (first compound 0.4 µM, partner dose 8.33333 µM) | 36.6 | 46.7 | 83.8 | 34.6 | 76.9 | 67.2 | 70.9 | 62.2 | 50.8 | 71.2 | 27.7 | 53.3 | 58.6 | 40 | 77.7 | 66.3 | 43.5 | 76.9 | 39.7 | 42
7 | COCC[n+]1c2c(n(Cc3cnccn3)c1C)C(=O)c1ccccc1C2=O + O=S(=O)(c1ccccc1)N(CC(F)(F)F)c1ccc(C(O)(C(F)(F)F)C(F)(F)F)cc1 [T0901317] (first compound 0.002 µM, partner dose 7 µM) | 70.3 | 48.2 | 55.6 | 24.5 | 93 | 88 | 39.1 | 68.3 | 28 | 108 | 46.7 | 34.4 | 75.4 | 42.3 | 27.8 | 63 | 65.7 | 50.3 | 75 | 69.7
8 | C#Cc1cccc(Nc2ncnc3cc(OCCOC)c(OCCOC)cc23)c1 [erlotinib] + Oc1nc(-c2ccc(C(F)(F)F)cc2)nc2c1CSCC2 [XAV939] (first compound 4 µM, partner dose 10 µM) | 64.4 | 82.8 | 81.8 | 68.4 | 76.5 | 73.7 | 70 | 81.1 | 44.7 | 92.8 | 64.5 | 90.9 | 78.9 | 67.1 | 88.3 | 85.1 | 71.7 | 75.6 | 48.7 | 72.1
9 | Nc1cccc2c1CN(C1CCC(=O)NC1=O)C2=O (stereo not given) [lenalidomide] + N#Cc1c(O)c2c(-c3ccc(-c4ccccc4O)cc3)csc2[nH]c1=O [A769662] (first compound 5 µM, partner dose 10 µM) | 91 | 102 | 103 | 88.9 | 92.3 | 84.8 | 106 | 86.4 | 84.4 | 81.6 | 68.2 | 103 | 94.3 | 102 | 116 | 107 | 96.4 | 104 | 89.8 | 77.1
10 | Nc1cccc2c1CN(C1CCC(=O)NC1=O)C2=O (stereo not given) [lenalidomide] + Cn1cncc1[C@@](N)(c1ccc(Cl)cc1)c1ccc2c(c1)c(-c1cccc(Cl)c1)cc(=O)n2C [tipifarnib] (first compound 5 µM, partner dose 0.05 µM) | 79.5 | 84.9 | 289 | 80.3 | 63.4 | 87.2 | 109 | 88.4 | 74 | 102 | 72.8 | 70.5 | 115 | 80.3 | 85.7 | 69.9 | 61.3 | 66.3 | 62.3 | 64.6
11 | COCC[n+]1c2c(n(Cc3cnccn3)c1C)C(=O)c1ccccc1C2=O + O=C1NC(=O)/C(=C/c2ccc(-c3ccc(F)cc3O)o2)S1 [AS252424] (first compound 0.002 µM, partner dose 5 µM) | 95.7 | 84.5 | 87.2 | 90.4 | 96.2 | 83 | 70.4 | 98.4 | 88.2 | 91.8 | 88.2 | 83.3 | 90.5 | 75.4 | 76.1 | 87.6 | 91.8 | 95.9 | 125 | 82.8
12 | Cn1c(Nc2ccc(C(F)(F)F)cc2)nc2cc(Oc3ccnc(-c4ncc(C(F)(F)F)[nH]4)c3)ccc21 + O=C(O)c1ccc(-c2c[nH]c3ncc(-c4ccccc4)cc23)cc1C1CCCC1 [GSK650394] (first compound 0.4 µM, partner dose 0.8 µM) | 29.6 | 49 | 74.4 | 33.9 | 75 | 62.4 | 71.3 | 69.4 | 41.9 | 44.3 | 41 | 53.1 | 72.5 | 37.1 | 59.9 | 56.5 | 38.2 | 57.5 | 81.3 | 44.4
13 | COCC[n+]1c2c(n(Cc3cnccn3)c1C)C(=O)c1ccccc1C2=O + NC(=O)Nc1cc(-c2cccc(F)c2)sc1C(=O)N[C@H]1CCCNC1 [AZD7762] (first compound 0.002 µM, partner dose 0.1 µM) | 72.1 | 55.1 | 54.4 | 23 | 73.7 | 82.5 | 34.7 | 25.6 | 27.2 | 107 | 30.5 | 25 | 74.1 | 37.8 | 21.3 | 60.5 | 63.8 | 60.9 | 75.6 | 27.8
14 | C#Cc1cccc(Nc2ncnc3cc(OCCOC)c(OCCOC)cc23)c1 [erlotinib] + N#Cc1c(O)c2c(-c3ccc(-c4ccccc4O)cc3)csc2[nH]c1=O [A769662] (first compound 4 µM, partner dose 10 µM) | 91.3 | 71 | 91.4 | 70.4 | 98 | 69.6 | 77.9 | 79.1 | 85.6 | 73.5 | 60 | 87.9 | 75.2 | 63.2 | 104 | 106 | 76.1 | 84.8 | 65.4 | 73.4
15 | Nc1cccc2c1CN(C1CCC(=O)NC1=O)C2=O (stereo not given) [lenalidomide] + O=c1cc(-c2cccc3c2Sc2ccccc2S3)oc(N2CCOCC2)c1 [KU55933] (first compound 5 µM, partner dose 5 µM) | 70.5 | 92.1 | 92.2 | 107 | 109 | 81.3 | 106 | 97 | 81.2 | 118 | 94.3 | 80.9 | 97.5 | 90.5 | 106 | 107 | 111 | 91.4 | 81.8 | 77.4
16 | COCC[n+]1c2c(n(Cc3cnccn3)c1C)C(=O)c1ccccc1C2=O + COc1cc2c(Oc3ccc4[nH]c(C)cc4c3F)ncnc2cc1OCCCN1CCCC1 [cediranib] (first compound 0.002 µM, partner dose 2 µM) | 67.8 | 58.5 | 39.2 | 31.1 | 95.7 | 91.7 | 53.6 | 51 | 46.6 | 94.8 | 57.9 | 11.6 | 67.8 | 37.6 | 22.5 | 71.1 | 79.5 | 53.7 | 88.9 | 42.5
17 | Cn1c(Nc2ccc(C(F)(F)F)cc2)nc2cc(Oc3ccnc(-c4ncc(C(F)(F)F)[nH]4)c3)ccc21 + C[C@]1(c2nc3c(C(N)=O)cccc3[nH]2)CCCN1 [Veliparib] (first compound 0.4 µM, partner dose 7 µM) | 23.9 | 40.5 | 81.5 | 38.8 | 81.4 | 51.2 | 44.1 | 64.4 | 58.6 | 53.2 | 25 | 48.4 | 65.5 | 32.7 | 72 | 46.4 | 37.7 | 65.5 | 39.6 | 44.3

Source: the supplement of paper PMC4604168 (melanoma cell lines)
